According to PubChem BioAssay AID1508642 (National Center for Advancing Translational Sciences (NCATS), 2021):
Among all 43,000 compounds or so, about 200 (0.47%) were called active. Not shown: some 12% with an inconclusive outcome. Calls follow the shape of the dose curve; as a rule, active = well fitted cell-killing curve with a large enough effect; inconclusive = small, poorly fitted or top-dose-only effect, or effect the other way; inactive = flat fitted curve, though single readings scatter. This is one part of the list.

assay: Cell viability qHTS assay in S16 Pmp22-F2sN cells; details: S16 Pmp22-F2sN Schwann cells (luciferase reporters placed in the Pmp22 gene) viability, CellTiter-Glo, 24 h; series mostly up to 57.5 µM; activity change, negative = cytotoxicity: at the top concentration; also: nearly all actives have a fitted effect of over 65% in size
How it was run: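 Luminescence from CellTiter-Glo, read by CCD camera after a 15 min room-temperature incubation, served as the viability signal. Reporter Schwann cells (S16 Pmp22-F2sN) had been treated with pin-transferred compounds for 24 h at 37C.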
% is scaled to controls: 0 for no effect and ±100 for the full control effect; potency is read from the fitted curve at half-maximal effect.

Row | SMILES | activity change, negative = cytotoxicity | Potency
1 | CCCCOC(=O)c1ccc(Nc2ncnc3[nH]ncc23)cc1 | inactive: 1.67% | 
2 | Cc1ccccc1-c1ncnn1-c1sc2c(c1C#N)CCCCC2 | inactive: -12.9% | 
3 | COc1ccc(-c2cc(C(=O)OCC(=O)c3ccc(C)cc3)c3cccc(Cl)c3n2)cc1 | inactive: -1.65% | 
4 | CC(C)Cn1c(=O)c2ccccc2n2c(CCC(=O)NCc3ccccc3Cl)nnc12 | inactive: 0.954% | 
5 | CCOc1ccccc1NC(=O)C(Cc1ccccc1)NS(=O)(=O)c1ccc2c(c1)oc(=O)n2C (stereo unspecified) | inactive: 7.05% | 
6 | O=C(CN1C=NS(=O)(=O)c2ccccc21)Nc1ccc(F)cc1 | inactive: 8.2% | 
7 | O=C(NCc1cccs1)c1ccc2c(c1)N(Cc1ccccc1Cl)C(=O)c1ccccc1S2 | inactive: 17.2% | 
8 | COc1ccc(-c2cc3nc(C)c(CCC(=O)N4CCN(c5cccc(Cl)c5)CC4)c(C)n3n2)c(OC)c1 | inactive: 2.42% | 
9 | CC(=O)NCCNC(=O)CCCc1nnc2n(C)c(=O)c3sccc3n12 | inactive: -2.04% | 
10 | COc1ccc(CNC(=O)c2cc3cc(C)ccc3n2C)cc1 | inactive: -3.14% | 
11 | CCOc1ccc(CCNC(=O)CN2C(=O)COc3ccc(S(=O)(=O)N4CCC(C)CC4)cc32)cc1 | inactive: 2.36% | 
12 | Cc1ccc(NC(=O)CCn2cccn2)cc1Cl | inactive: 0.784% | 
13 | O=S(=O)(c1ccccc1)c1nnn2c1nc(NCc1cccs1)c1sccc12 | inactive: 2.41% | 
14 | Cc1ccc2oc(C(=O)Nc3c(C(=O)Nc4ccccc4)oc4ccccc34)cc(=O)c2c1 | inactive: -3.09% | 
15 | CCCOc1ccc(N2CC(C(=O)Nc3cccc(Cl)c3Cl)CC2=O)cc1 (stereo unspecified) | inactive: 1.58% | 
16 | CCCCN(C)c1nnc(NC(=O)Nc2cccc(C(C)=O)c2)s1 | inactive: -7.56% | 
17 | COC(=O)c1c(NC(=O)c2cc3nc(-c4ccc(OC)cc4)cc(C(F)(F)F)n3n2)sc2c1CCCC2 | inactive: 6.91% | 
18 | Cc1ccc(NC2=CC(c3ccccc3F)N(c3ccc(C)cc3)C2=O)cc1 (stereo unspecified) | inactive: -9.7% | 
19 | COc1ccc(NC(=O)Cn2c(=O)n(-c3ccccc3)c(=O)c3c4c(sc32)CCCC4)cc1 | inactive: 0.88% | 
20 | O=C(Cc1ccccc1)Nc1sc2c(c1C(=O)Nc1ccccc1Cl)CCC2 | inactive: 0.831% | 
21 | COc1ccc(-c2cc(NCc3ccc(F)cc3)n3cnnc3n2)cc1 | inactive: -2.07% | 

Row | SMILES | activity change, negative = cytotoxicity | Potency
22 | Cc1ccc(NC(=O)CCc2nnc3n(CC(C)C)c(=O)c4ccccc4n23)cc1C | inactive: 8.13% | 
23 | CCCN1C(=O)C(Cc2nc3ccccc3c(=O)n2CC)c2ccccc21 (stereo unspecified) | inactive: -4.22% | 
24 | CCCc1cc(N2CCN(c3cc(Cl)ccc3C)CC2)n2cnnc2n1 | inactive: -25.7% | 
25 | COc1ccc(CNC(=O)Cn2nc(C)c3nn(-c4ccc(Cl)cc4)c(C)c3c2=O)cc1 | inactive: 8.78% | 
26 | O=C(COc1ccccc1)NCCc1csc(-c2ccc(Cl)cc2)n1 | inactive: 8.46% | 
27 | COc1cccc(Cn2c(CNS(=O)(=O)c3ccc(F)c(Cl)c3)nc3cccnc32)c1 | inactive: -7.3% | 
28 | CCc1nn2c(=O)cc(COc3ccc(/C=C(\C#N)C(=O)Nc4ccc(F)cc4)cc3OC)nc2s1 | inactive: 3.6% | 
29 | CC(C)COc1ccc(C(=O)Nc2cc3nn(-c4ccccc4)nc3cc2Cl)cc1 | inactive: 10.6% | 
30 | CCOC(=O)c1[nH]c2c(c1Cc1ccccc1C)C(=O)CC(c1cc(OC)ccc1OC)C2 (stereo unspecified) | inactive: 2.36% | 
31 | CN1C(=O)Cc2cc(S(=O)(=O)N3CCN(c4ccc(Cl)cc4)CC3)ccc21 | inactive: 12.9% | 
32 | CCn1c2ccccc2c2nnc(SCC(=O)Nc3ccccc3OC)nc21 | inactive: 2.5% | 
33 | CCOc1ccccc1CNC(=O)c1cc(-c2ccc(Cl)s2)nc2ccccc12 | inactive: -2.09% | 
34 | CCOC(=O)c1ccc(NC(=O)C2CCN(S(=O)(=O)c3ccc4c(c3)CCCC(=O)N4)CC2)cc1 | inactive: 16.7% | 
35 | Cc1ccccc1-c1nn2c(=O)cc(CN3CCN(C(=O)/C=C/c4ccccc4)CC3)nc2s1 | inactive: -2.84% | 
36 | CCc1ccc(NC(=O)Cn2c(=O)n(CCC(=O)N3CCc4ccccc4C3)c(=O)c3ccccc32)cc1 | inactive: 6.74% | 
37 | O=S(=O)(NCC(c1cccs1)S(=O)(=O)c1ccccc1)c1ccc(F)cc1 (stereo unspecified) |  | active: 20 µM
38 | CCOc1ccc(NC(=O)c2c(NCc3cccnc3)sc3c2CCCC3)cc1 | inactive: 5.61% | 
39 | CCOC(=O)c1ccc(CN(Cc2ccc(F)cc2)S(=O)(=O)c2ccc(F)c(C(=O)Nc3ccc(Cl)cc3F)c2)cc1 | inactive: 1.22% | 
40 | COc1cccc(N2CCN(C(=O)c3cccc(-n4c(C)nc5cccnc54)c3)CC2)c1 | inactive: -16.6% | 
41 | O=S(=O)(Nc1ccc(Br)cc1F)c1ccc2nc(-c3ccccc3)[nH]c2c1 | inactive: -14.8% | 
42 | CC1CCc2c(sc3nc(-c4cc5cc(Br)ccc5oc4=O)[nH]c(=O)c23)C1 (stereo unspecified) | inactive: -3.55% | 

Row | SMILES | activity change, negative = cytotoxicity | Potency
43 | O=C(CCS(=O)(=O)c1cccc2nonc12)Nc1c(F)cccc1F | inactive: -0.83% | 
44 | C=Cc1ccc(Cn2c(C(=O)O)c(CNC3CCCCC3)c3ccc(C)cc32)cc1 | inactive: 1.52% | 
45 | Cc1cc(C)c(NC(=O)Cn2cc(S(=O)(=O)Cc3ccccc3F)c3ccccc32)c(C)c1 | inactive: 0.474% | 
46 | COC(=O)c1c(NC(=O)c2cc3ccccc3c(=O)o2)sc2c1CCCC2 | inactive: 1.5% | 
47 | Cc1cccc(C)c1OCC(=O)Nc1ncn[nH]1 | inactive: 3.17% | 
48 | CCN(CC)CCNC(=O)c1c(C)oc2ncnc(N3CCOCC3)c12 | inactive: -2.33% | 
49 | CCOc1ccc(CCNC(=O)c2cnc3sc(N(CC)CC)nn3c2=O)cc1OCC | inactive: 4.35% | 
50 | O=C(NCCc1ccccc1)c1ccc2c(c1)N(Cc1ccc(F)cc1)C(=O)c1ccccc1S2(=O)=O | inactive: -19.4% | 
51 | Cc1cccc(N(CC(O)Cn2c3ccccc3c3ccccc32)S(=O)(=O)c2ccc(F)cc2)c1 (stereo unspecified) | inactive: 0.921% | 
52 | CC(C)c1ccc(NC(=O)c2cc3sc(Cl)cc3n2C)cc1 | inactive: -1.56% | 
53 | COc1ccccc1NC(=O)N(Cc1nnc2n1CCCCC2)c1ccc(F)cc1 | inactive: 21.2% | 
54 | CC(=O)c1cccc(NC(=O)C(C)n2c(=O)cc(C)c3c(C)nn(-c4ccccc4)c32)c1 (stereo unspecified) | inactive: 19.6% | 
55 | COc1ccc(NC(=O)Cn2nnc(C(=O)NCCc3ccccc3)c2N)cc1 | inactive: 4.34% | 
56 | COc1ccc(OC)c(CNS(=O)(=O)c2ccc3c(c2)CCCN3C(C)=O)c1 | inactive: -3.11% | 
57 | Cc1ccccc1S(=O)Cc1ccc(C(=O)N2CCN(c3cccc(C)c3C)CC2)o1 (stereo unspecified) | inactive: -25.3% | 
58 | Cc1ccc2onc(CC(=O)N3CCN(c4ccc(F)cc4)CC3)c2c1 | inactive: 1.19% | 
59 | CC(C)CC(=O)N1c2nc(C(C)C)nn2C2(CCCCC2)[C@@H]2CCCC[C@@H]21 | inactive: 2.04% | 
60 | Cc1ccc(-c2c(CN3CCN(c4cccc(C)c4)C(C)C3)csc2C)cc1 (stereo unspecified) | inactive: 19.5% | 
61 | O=C(NCc1ccco1)c1ccc2c(c1)N(Cc1ccccc1)C(=O)c1ccccc1S2(=O)=O | inactive: -1.82% | 
